Reference: PubChem BioAssay AID651820 (National Center for Advancing Translational Sciences (NCATS), 2012)
Hit rate of the full screen: of about 340,000 compounds, about 12,000 (3.5%) were called active. The shares of active, inactive and inconclusive entries below differ from those in the screen. Calls follow the shape of the dose curve; as a rule, active = well fitted inhibition curve with a large enough effect; inconclusive = small, poorly fitted or top-dose-only effect, or another doubt; inactive = no such curve, though single readings can be large or run the other way. No potency is given beside an inconclusive call; the fits are too rough.

experiment: qHTS Assay for Inhibitors of Hepatitis C Virus (HCV); details: Huh7.5.1 HCVcc-Cre (HCVcc is cell-culture hepatitis C virus) infection, luciferase reporter, 44 h; activity change, negative = inhibition: at 41.8 µM (top of the series) unless noted
In short: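 1,000 cells/well; 4 h culture; + compound; + HCVcc-Cre (~0.5 moi); 44 h; luciferase substrate, RT 15 min; read 15 sec.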
% is scaled to controls: 0 for no effect and ±100 for the full control effect; potency is read from the fitted curve at half-maximal effect; tags tell the direction and shape of the fitted curve.

Q: For COc1ccc(NS(=O)(=O)c2cc(NC(=O)c3ccco3)ccc2N2CCCCC2)cc1, which Potency is on record?
A: inconclusive [inhibitor, single point]

Q: Which “activity change, negative = inhibition” value does the source give for CN(C)/C=C/C(=O)c1ccc(Br)cc1 here?
A: inactive: 6.6%

Q: Which “activity change, negative = inhibition” value does the source give for COc1cccc(CNC(=O)Cc2c(C(=O)O)[nH]c3ccccc23)c1 here?
A: inactive: 7.97%

Q: For CCCOc1ccc(C(=O)NC(=S)Nc2nc(C)c(C(=O)N(C)C)s2)cc1, which Potency is on record?
A: inconclusive [inhibitor, partial curve]

Q: For CCn1c(COc2ccccc2C)nc2ccccc21, which Potency is on record?
A: inconclusive [inhibitor, partial curve]

Q: Which Potency does the source give for COc1ccc(NC(=O)Nc2cccc(C(F)(F)F)c2)cn1 here?
A: inconclusive [inhibitor, single point]

Q: For COC(=O)NC(=S)Nc1ccc(Oc2ccc(Cl)cc2)c(Cl)c1, which “activity change, negative = inhibition” value is on record?
A: inactive: -23.5%

Q: For Cc1cc(C(=O)OCC(=O)N2C(C)CCCC2C)c2ccccc2n1 (configuration not stated), which “activity change, negative = inhibition” value is on record?
A: inactive: -14.7%

Q: With Oc1c(CN2CCOCC2)cc(COCc2ccccc2)c2cccnc12 as the molecule, how does the Potency read?
A: inconclusive [inhibitor, full curve]

Q: For Cc1ccc2nc(N(CCCN(C)C)C(=O)COc3ccc(Cl)cc3)sc2c1, which Potency is on record?
A: inconclusive [inhibitor, single point]

Q: With CC(C)CCN(C(=O)Cc1ccccc1F)c1c(N)n(Cc2ccccc2)c(=O)[nH]c1=O as the molecule, how does the Potency read?
A: inconclusive [inhibitor, partial curve]

Q: For CCOC(=O)C1CCN(c2ncnc3c2[nH]c2cccc(OC)c23)CC1, which Potency is on record?
A: inconclusive [inhibitor, single point]

Q: With CC/C(=N\NC(=O)c1cccnc1)c1ccc2c(c1)OCCO2 as the molecule, how does the Potency read?
A: inconclusive [inhibitor, single point]

Q: With Cc1ccccc1Sc1c(C#N)c(-c2ccccc2)nn1C as the molecule, how does the Potency read?
A: inconclusive [inhibitor, single point]

Q: Which Potency does the source give for Cn1nc(CC(=O)NCc2cccc3ccccc23)c2ccccc2c1=O here?
A: inconclusive [inhibitor, single point]

Q: With COc1ccccc1C(C)Nc1ccc(S(=O)(=O)N2CCN(C)CC2)cc1[N+](=O)[O-] (configuration not stated) as the molecule, how does the Potency read?
A: active: 11.2 µM

Q: Which “activity change, negative = inhibition” value does the source give for O=C(Nc1ccc(NC(=O)c2ccc3c(c2)OCO3)cc1)c1cccc(Cl)c1 here?
A: inactive: 3.43%

Q: Which “activity change, negative = inhibition” value does the source give for CCS(=O)(=O)N1CCC(C(=O)NCCC2=CCCCC2)CC1 here?
A: inactive: 21.8%

Q: For CSc1ccc(/C=N/n2c(C)nnc2C)cc1, which Potency is on record?
A: inconclusive [inhibitor, single point]

Q: Which “activity change, negative = inhibition” value does the source give for CCCOC(=O)c1cc(-c2ccc(/C=C3/C(=O)N(C)C(=O)C(C#N)=C3C)o2)ccc1Cl here?
A: inactive: 10.1%

Q: With CCOC(=O)C1CCCN(C(=O)c2cc3c(C)nc4ccccc4c3o2)C1 (configuration not stated) as the molecule, how does the Potency read?
A: inconclusive [inhibitor, single point]

Q: For COc1ccccc1NC(=O)CN(c1ccccc1OC)S(=O)(=O)c1ccccc1, which Potency is on record?
A: inconclusive [inhibitor, single point]

Q: Which “activity change, negative = inhibition” value does the source give for CCc1ccc(OCC(=O)NC(C)(C)C)cc1 here?
A: inactive: 10.1%

Q: With Cc1cc(S(=O)(=O)NC(C)C)ccc1OCC(=O)N1CCN(Cc2ccc3c(c2)OCO3)CC1 as the molecule, how does the Potency read?
A: inconclusive [inhibitor, single point]

Q: With O=C(O)CSCC(=O)N1CCCN(c2ccc(C(F)(F)F)cn2)CC1 as the molecule, how does the “activity change, negative = inhibition” value read?
A: inactive: 19.8%

Q: Which Potency does the source give for CCOc1cc(-c2cc(-c3ccc(C)cc3)nc(N)c2C#N)ccc1O here?
A: active: 25.1 µM

Q: Which “activity change, negative = inhibition” value does the source give for CC1(C)CC(NCc2cccc([N+](=O)[O-])c2)CC(C)(C)N1 here?
A: inactive: -24.8%

Q: For Cc1cc2cc(C(c3nnnn3Cc3ccco3)N3CCc4ccccc4C3)c(=O)[nH]c2cc1C (configuration not stated), which Potency is on record?
A: inconclusive [inhibitor, single point]

Q: Which Potency does the source give for Cc1csc(NC(=O)c2cc3c(s2)-c2ccccc2OC3)n1 here?
A: active: 11.2 µM

Q: For COc1cc(CNCCc2c[nH]c3ccccc23)ccc1OCc1ccccc1F, which Potency is on record?
A: inconclusive [inhibitor, single point]

Q: For C=CCOc1c(Br)cc(/C=N/NC(N)=O)cc1OC, which Potency is on record?
A: inconclusive [inhibitor, single point]

Q: For CCN1CCN(c2nc(-c3cccs3)nc3ccccc23)CC1, which Potency is on record?
A: inconclusive [inhibitor, single point]

Q: For CCN1CCN(Cc2ccc(NC(=O)c3ccc(C)c(NC(=O)c4c[nH]c5cc(C(F)(F)F)ccc5c4=O)c3)cc2C(F)(F)F)CC1, which Potency is on record?
A: inconclusive [inhibitor, partial curve]

Q: For O=C(N[C@@H](Cc1ccccc1)C(=O)N1CCC2(CC1)NCCc1[nH]cnc12)c1cccc(Br)c1, which Potency is on record?
A: inconclusive [inhibitor, partial curve]

Q: For CC(C)Oc1ccc(S(=O)(=O)N2CCCCC2)cc1NC(=O)CN1C(=O)NC2(CCCC2)C1=O, which Potency is on record?
A: inconclusive [inhibitor, partial curve]

Q: Which Potency does the source give for O=C(c1ccc(Cl)c(S(=O)(=O)N2CCCC2)c1)N1CCN(c2ccccc2F)CC1 here?
A: inconclusive [inhibitor, partial curve]

Q: For Cc1c(C(=O)c2ccc(Cl)c(Cl)c2)cnc2cc3c(cc12)OCO3, which Potency is on record?
A: inconclusive [inhibitor, partial curve, poor fit]

Q: For CCOC(=O)C(C)Sc1nc(-c2ccccc2)nc2ccccc12 (configuration not stated), which Potency is on record?
A: inconclusive [inhibitor, single point]

Q: Which Potency does the source give for CN(C)c1cc(NC(=O)CN2CCCC2)c2ccccc2n1 here?
A: inconclusive [inhibitor, single point]

Q: With O=C1c2ccccc2C(=O)N1CCc1ccccn1 as the molecule, how does the “activity change, negative = inhibition” value read?
A: inactive: -9.82%

Q: With COc1ccc(C(C)(C)C)cc1NC(=O)Nc1ccc2c(c1)OCO2 as the molecule, how does the Potency read?
A: inconclusive [inhibitor, partial curve]

Q: For COc1ccc(NS(=O)(=O)c2cccc(NC(=O)c3ccc(S(=O)(=O)N4CCCCCC4)cc3)c2)cc1, which Potency is on record?
A: inconclusive [inhibitor, full curve]

Q: With O=C(/C=C/c1ccccc1)NC(NC(=S)Nc1ccc(Cl)cc1Cl)C(Cl)(Cl)Cl (configuration not stated) as the molecule, how does the Potency read?
A: active: 10 µM

Q: With COc1cc2sc3ccc(C#CC4(O)CCCCC4)cc3c(=O)c2cc1OC as the molecule, how does the Potency read?
A: inconclusive [inhibitor, partial curve]

Q: For Cc1ccc(SC(C)C(=O)Nc2cccnc2)cc1 (configuration not stated), which Potency is on record?
A: inconclusive [inhibitor, single point]

Q: For Cc1nn(C)cc1CN1CCCC(C(=O)c2ccc(-c3ccccc3)c(F)c2)C1 (configuration not stated), which Potency is on record?
A: active: 10 µM

Q: Which “activity change, negative = inhibition” value does the source give for COC(=O)c1ccc2c(=O)n(CC3CCCO3)c(SCC(=O)Nc3ccccc3OC)nc2c1 (configuration not stated) here?
A: inactive: 8.08%

Q: Which “activity change, negative = inhibition” value does the source give for COc1ccccc1-c1noc2ncnc(Nc3cccc(C)c3C)c12 here?
A: inactive: -5.14%

Q: Which Potency does the source give for CCOC(=O)N1CCN(C(=O)CN(Cc2ccc(Cl)cc2)S(=O)(=O)c2ccc(C)cc2)CC1 here?
A: inconclusive [inhibitor, single point]

Q: With CCOc1ccc(S(=O)(=O)NC2CC2)cc1C(N)=O as the molecule, how does the “activity change, negative = inhibition” value read?
A: inactive: -0.313%

Q: Which Potency does the source give for Cc1ccc(SCc2nc(N)nc(Nc3ccccc3C)n2)cc1C here?
A: active: 12.6 µM

Q: Which “activity change, negative = inhibition” value does the source give for Nc1nc(SCC(=O)N2CCCc3ccccc32)[nH]c(=O)c1-c1ccccc1 here?
A: inactive: 12.6%

Q: With O=[N+]([O-])c1ccc(NCCO)c2ncccc12 as the molecule, how does the Potency read?
A: inconclusive [inhibitor, single point]

Q: With CCOC(=O)c1c(-c2ccccc2)nc2c(C)cccn12 as the molecule, how does the “activity change, negative = inhibition” value read?
A: inactive: -16.9%

Q: Which Potency does the source give for c1ccc(CCNCCCOc2cccc3ccccc23)cc1 here?
A: inconclusive [inhibitor, single point]

Q: For CCOc1cc(C2C3=C(CCCC3=O)N(CCC(=O)O)C3=C2C(=O)CCC3)ccc1OS(=O)(=O)c1ccc(C)cc1, which “activity change, negative = inhibition” value is on record?
A: inactive: 7.03%

Q: With CC(=O)c1ccc(N2CCN(C(=O)c3n[nH]c4ccccc34)CC2)cc1 as the molecule, how does the “activity change, negative = inhibition” value read?
A: inactive: -20.7%

Q: Which Potency does the source give for Cc1nc(N2CCN(c3ccccn3)CC2)c2c(C)c(C(=O)Nc3ccccc3F)sc2n1 here?
A: inconclusive [inhibitor, single point]

Q: With Cc1ccc(-c2cc(NC(=O)CSc3n[nH]c(N)n3)n(-c3ccccc3)n2)cc1 as the molecule, how does the Potency read?
A: inconclusive [inhibitor, single point]

Q: With COc1cccc(-c2ncc3ccccc3c2COC(=O)N(C)C)c1 as the molecule, how does the Potency read?
A: inconclusive [inhibitor, partial curve]

Q: For Cc1ccc(C2C3=C(NCCN=C3c3ccccc3)C(=O)N2c2ccccc2)cc1 (configuration not stated), which Potency is on record?
A: inconclusive [inhibitor, single point]

Q: With Cc1cccc(CN2CCN(Cc3ccco3)CC2)c1 as the molecule, how does the “activity change, negative = inhibition” value read?
A: inactive: 1.6%

Q: Which Potency does the source give for O=C(Nc1ccc(F)cc1F)N1CCCN(c2ccc(C(F)(F)F)cn2)CC1 here?
A: active: 5.01 µM

Q: For Cc1nn(C)c(C(=O)Nc2ccc(S(=O)(=O)NC34CC5CC(CC(C5)C3)C4)cc2)c1Br, which Potency is on record?
A: active: 10 µM

Q: With CCOC(=O)C1CCCN(S(=O)(=O)c2cc3c4c(c2)CCC(=O)N4CCC3)C1 (configuration not stated) as the molecule, how does the Potency read?
A: inconclusive [inhibitor, partial curve]

Q: Which Potency does the source give for COc1cc(-c2nnc(Cn3cc(C(F)(F)F)ccc3=O)o2)cc(OC)c1OC here?
A: inconclusive [inhibitor, partial curve]

Q: With Cc1cc(C)c(C)c(S(=O)(=O)N2CCN(C(=O)c3ccc4c(=O)n5c(nc4c3)CCC5)CC2)c1C as the molecule, how does the “activity change, negative = inhibition” value read?
A: inactive: -7.77%

Q: For CCOC(=O)c1c(C)[nH]c(C(=O)N2CCC(C(=O)OCC)CC2)c1C, which “activity change, negative = inhibition” value is on record?
A: inactive: -5.82%

Q: Which “activity change, negative = inhibition” value does the source give for Cn1c(=O)c2cc3ccccc3nc2n(C)c1=O here?
A: inactive: -0.693%

Q: For COc1ccc(/C=C(\C#N)C(=O)OCC(=O)NCc2ccccc2Cl)cc1, which “activity change, negative = inhibition” value is on record?
A: inactive: -0.351%

Q: For COc1ccc2cc(C#N)c(SCC(=O)N3CCCC3)nc2c1, which Potency is on record?
A: inconclusive [inhibitor, single point]

Q: With O=C(CCN1CCN(c2ccccc2)CC1)N/N=C/c1ccccc1OC(F)F as the molecule, how does the Potency read?
A: inconclusive [inhibitor, single point]
